These results are taken from the supplement of paper PMC11283458.

Some of the results follow. Single values are uncertain, as repeats are few or missing.

Experiment [1] relates to Mef2d microexon dual Nano/Firefly luciferase splicing reporter in Neuro-2a cells. Put plainly: B-score of Firefly/Nano luminescence ratio, V1 Mef2d microexon reporter (B-score (plate-normalised)); higher = more Mef2d microexon inclusion. To be noted: 24 h.
The test system is the same in experiment [2]. Put plainly: B-score of Nano/Firefly luminescence ratio, V2 Mef2d microexon reporter (B-score (plate-normalised)); higher = more Mef2d microexon inclusion. To be noted: 24 h.
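Throughout, for B-score of Nano/Firefly luminescence ratio, V2 Mef2d microexon reporter: compounds at 4 µM (PKI library 0.5 µM) on Dox-inducible N2A Flp-In cells with PEST-tagged luciferases, 384-well plates, B-score from per-plate median-polish residual over median absolute residual.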

Take `O=[N+]([O-])c1ccc(N/N=C/c2cc(Cl)cc(Cl)c2O)nc1` (4 µM): the B-score was -9.44 in experiment [1] and -1.49 in experiment [2].
As for `Nc1ncnc2c1c(-c1cccc(OCc3ccccc3)c1)cn2C1CC(CN2CCC2)C1` (stereo unspecified) (0.5 µM), the B-score in experiment [1] came out at 16.4; in experiment [2], 5.
With `CC1(C)COC(/C=C/c2cccc([N+](=O)[O-])c2)=N1` (4 µM), the B-score in experiment [1] was -2.32; in experiment [2], -4.59.
For the compound `N#CCSc1nsc(SCC#N)c1C#N` (4 µM), the B-score in experiment [1] was -3.54; in experiment [2] it was -4.55.
Regarding `O=C(c1ccc(Cl)cc1)C(CN1CCOCC1)c1ccccc1` (stereo unspecified) (4 µM), the figures for the B-score in experiment [1] and in experiment [2] were -4.41 and -7.13, respectively.
For `O=C(COc1cccc([N+](=O)[O-])c1)N1CCN(c2ncc(C(F)(F)F)cc2Cl)CC1` (4 µM), in that order: 3.89 and 0.683.
Take `CC(C)ON([C@@H](C(=O)NO)C(C)C)S(=O)(=O)c1ccc(-c2ccccc2)cc1` (4 µM): the B-score in experiment [1] came out at 13.1; in experiment [2], 7.47.
Take `CC(C)(C)c1cc2nc(C(F)(F)F)cc(N3CCN(C(=O)Nc4ccccc4)CC3)n2n1` (4 µM): the B-score in experiment [1] was 2.36; in experiment [2] it was 4.14.
Regarding `CC(C)c1ccc(-n2c(SCc3ccc([N+](=O)[O-])cc3)nnc2-c2ccc(C(C)(C)C)cc2)cc1` (4 µM), the figures for the B-score in experiment [1] and in experiment [2] were 2.98 and 4.12, respectively.
For `O=c1[nH]c(=O)n(C2CC(O)C(CO)O2)cc1I` (stereo unspecified) (4 µM), in that order: 4.72 and 0.391.
As to `COc1ccc(C(=O)ON=C(N)c2nccnc2Oc2cccc(C(F)(F)F)c2)cc1OC` (4 µM), the B-score in experiment [1] came out at 15; in experiment [2], 6.73.
For `Cc1cccc(NC(=O)Nc2ccc(C#N)cc2)n1` (4 µM), the B-score stood at 5.18 in experiment [1] and 4.48 in experiment [2].
For the compound `CS(=O)c1sc(C(=O)OCc2ccccc2)c2c1C(=O)CC(C)(C)C2` (stereo unspecified) (4 µM), the B-score in experiment [1] stood at 6.11; in experiment [2] it was 3.56.
